Data: the supplement of paper PMC4604168 (melanoma cell lines)
The list shows a part of the results. Single values are uncertain, as repeats are few or missing.

Tests used:
Assay in all cases: cell count relative to DMSO control; melanoma cells; higher = more viable cells
Conditions in all cases: library dose: standard library concentration; 72 h
G361 = test system: G361
IPC-298 = test system: IPC-298
IST-MEL1 = test system: IST-MEL1
LB2518-MEL = test system: LB2518-MEL
LOXIMVI = test system: LOXIMVI
MEL-HO = test system: MEL-HO
MZ2-MEL = test system: MZ2-MEL
MeWo = test system: MeWo
RPMI7951 = test system: RPMI7951
RVH-421 = test system: RVH-421
SkMel28 = test system: SkMel28
SkMel2 = test system: SkMel2
SkMel30 = test system: SkMel30
SkMel5 = test system: SkMel5
UACC257 = test system: UACC257
UACC62 = test system: UACC62
WM115 = test system: WM115
WM1716 = test system: WM1716
WM1745 = test system: WM1745
WM3526 = test system: WM3526
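Also: cells treated in 1,536-well plates, then fixed and DAPI-stained, with nuclei counted from automated high-throughput microscope images.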

| Structure (SMILES) | cell count (G361) | cell count (IPC-298) | cell count (IST-MEL1) | cell count (LB2518-MEL) | cell count (LOXIMVI) | cell count (MEL-HO) | cell count (MZ2-MEL) | cell count (MeWo) | cell count (RPMI7951) | cell count (RVH-421) | cell count (SkMel28) | cell count (SkMel2) | cell count (SkMel30) | cell count (SkMel5) | cell count (UACC257) | cell count (UACC62) | cell count (WM115) | cell count (WM1716) | cell count (WM1745) | cell count (WM3526) |
| --- | --- | --- | --- | --- | --- | --- | --- | --- | --- | --- | --- | --- | --- | --- | --- | --- | --- | --- | --- | --- |
| Cn1cc(C2=C(c3cn(C4CCN(Cc5ccccn5)CC4)c4ccccc34)C(=O)NC2=O)c2ccccc21 [Enzastaurin] + Nc1ccn([C@@H]2O[C@H](CO)[C@@H](O)C2(F)F)c(=O)n1 [gemcitabine] (first compound 4 µM, partner dose 0.002 µM) | 78.6% | 59.1% | 63.1% | 72.2% | 86.1% | 79.5% | 85.8% | 62.3% | 69.2% | 134% | 93.9% | 113% | 107% | 112% | 91% | 70.8% | 112% | 70.2% | 58.3% | 120% |
| N.N.[Cl][Pt][Cl] [cisplatin] + C=CCNC1=C2C[C@@H](C)C[C@H](OC)[C@H](O)[C@@H](C)/C=C(\C)[C@H](OC(N)=O)[C@@H](OC)/C=C\C=C(/C)C(=O)NC(=CC1=O)C2=O [Tanespimycin] (first compound 8 µM, partner dose 0.01 µM) | 72.3% | 97.2% | 62.7% | 82.5% | 71.9% | 88.7% | 98.6% | 63.6% | 20.4% | 205% | 63.5% | 98.7% | 111% | 71.9% | 83.1% | 56.9% | 27.5% | 75.9% | 66.8% | 79.4% |
| C[As](C)SC[C@H](NC(=O)CC[C@H](N)C(=O)O)C(=O)NCC(=O)O [Darinaparsin] + Nc1cccc2c1CN(C1CCC(=O)NC1=O)C2=O [lenalidomide] (first compound 2 µM, partner dose 5 µM) | 95.7% | 101% | 88.8% | 88.5% | 73.5% | 92.1% | 108% | 81% | 85.9% | 76.4% | 114% | 109% | 93.7% | 67.7% | 77.4% | 67.7% | 69.7% | 63.2% | 96.2% | 92.6% |
| Cn1cc(C2=C(c3cn(C4CCN(Cc5ccccn5)CC4)c4ccccc34)C(=O)NC2=O)c2ccccc21 [Enzastaurin] + CCCCCCCCc1ccc(CCC(N)(CO)CO)cc1 [fingolimod] (first compound 4 µM, partner dose 10 µM) | 1.28% | 30.4% | 5.03% | 0.358% | 18.4% | 1.01% | 56.3% | 19.1% | 1.92% | 10.5% | 1.24% | 0.205% | 17.6% | 60.3% | 63.8% | 12.8% | 17.6% | 8.7% | 4.85% | 8.91% |
| C[C@]12O[C@H](C[C@]1(O)CO)n1c3ccccc3c3c4c(c5c6ccccc6n2c5c31)CNC4=O [Lestaurtinib] + CC(C)(C)c1cnc(CSc2cnc(NC(=O)C3CCNCC3)s2)o1 [SNS-032] (first compound 0.02 µM, partner dose 0.05 µM) | 70.9% | 98.3% | 107% | 64.3% | 70.6% | 87.3% | 85.7% | 88.8% | 42% | 84.1% | 57.5% | 0.38% | 88.1% | 46.8% | 87.4% | 68.9% | 77.1% | 81.6% | 63.3% | 67.9% |
| C[As](C)SC[C@H](NC(=O)CC[C@H](N)C(=O)O)C(=O)NCC(=O)O [Darinaparsin] + COc1ccc(COc2ccc(Cc3cnc(N)nc3N)cc2OC)cc1 [GW2580] (first compound 2 µM, partner dose 5 µM) | 90.2% | 93.7% | 94.3% | 98.1% | 98.3% | 84% | 105% | 74.2% | 85.6% | 92.6% | 84% | 95.9% | 77.3% | 65.8% | 89% | 94.3% | 81.6% | 73% | 90% | 92.9% |
| N.N.[Cl][Pt][Cl] [cisplatin] + Cc1nc(Nc2ncc(C(=O)Nc3c(C)cccc3Cl)s2)cc(N2CCN(CCO)CC2)n1 [dasatanib] (first compound 8 µM, partner dose 0.02 µM) | 87.1% | 71.6% | 86.7% | 77.4% | 55.5% | 76.9% | 71.9% | 82.6% | 79.6% | 60.6% | 77.6% | 95.5% | 83.8% | 67.3% | 67% | 90.8% | 74.1% | 69.3% | 55% | 85.4% |
| Cn1cc(C2=C(c3cn(C4CCN(Cc5ccccn5)CC4)c4ccccc34)C(=O)NC2=O)c2ccccc21 [Enzastaurin] + C[C@]1(c2nc3c(C(N)=O)cccc3[nH]2)CCCN1 [Veliparib] (first compound 4 µM, partner dose 7 µM) | 73.6% | 99% | 78.5% | 64.8% | 98.1% | 99.6% | 104% | 114% | 52.8% | 43.7% | 74.1% | 91.2% | 106% | 65.7% | 72.6% | 67.7% | 82.3% | 76.8% | 45.9% | 94.5% |
| Cn1cc(C2=C(c3cn(C4CCN(Cc5ccccn5)CC4)c4ccccc34)C(=O)NC2=O)c2ccccc21 [Enzastaurin] + C[As](C)SC[C@H](NC(=O)CC[C@H](N)C(=O)O)C(=O)NCC(=O)O [Darinaparsin] (first compound 4 µM, partner dose 2 µM) | 60% | 76.5% | 79.9% | 71.3% | 82.2% | 90.9% | 89.2% | 71.2% | 49% | 43.7% | 63.7% | 60.4% | 74.1% | 72% | 72.1% | 57.1% | 83.4% | 69.9% | 52.3% | 77.3% |
| N.N.[Cl][Pt][Cl] [cisplatin] + OCCn1cc(-c2cnc3nnn(Cc4ccc5ncccc5c4)c3n2)cn1 [PF04217903] (first compound 8 µM, partner dose 5 µM) | 88.9% | 112% | 76.5% | 89% | 76.6% | 91% | 115% | 91.3% | 114% | 106% | 81% | 98.5% | 121% | 84.1% | 86.4% | 99.1% | 101% | 111% | 69.4% | 107% |
| C[As](C)SC[C@H](NC(=O)CC[C@H](N)C(=O)O)C(=O)NCC(=O)O [Darinaparsin] + CN(C)S(=O)(=O)c1ccc2c(c1)/C(=C/c1cc3c([nH]1)CCCC3)C(=O)N2 [SU6656] (first compound 2 µM, partner dose 2 µM) | 58.3% | 59.6% | 24.1% | 61.9% | 77.9% | 78.8% | 87.8% | 78% | 61.9% | 339% | 33.3% | 65.5% | 88.2% | 74.9% | 71.4% | 71.6% | 45% | 56.2% | 76.1% | 64% |
| N.N.[Cl][Pt][Cl] [cisplatin] + CS(=O)(=O)CCNCc1ccc(-c2ccc3ncnc(Nc4ccc(OCc5cccc(F)c5)c(Cl)c4)c3c2)o1 [lapatinib] (first compound 8 µM, partner dose 4 µM) | 104% | 96.2% | 94.5% | 114% | 78.8% | 95.5% | 88.7% | 80.3% | 71.8% | 71.3% | 151% | 138% | 107% | 71% | 97.3% | 82.8% | 101% | 111% | 88.4% | 96.4% |
| C[As](C)SC[C@H](NC(=O)CC[C@H](N)C(=O)O)C(=O)NCC(=O)O [Darinaparsin] + O=S(=O)(c1ccccc1)N(CC(F)(F)F)c1ccc(C(O)(C(F)(F)F)C(F)(F)F)cc1 [T0901317] (first compound 2 µM, partner dose 7 µM) | 73.2% | 77.3% | 82.7% | 92.6% | 86.6% | 80.7% | 101% | 76.8% | 89.6% | 73.2% | 68.3% | 76.1% | 80.4% | 55.8% | 82.3% | 94.3% | 80.8% | 75.1% | 83% | 73.6% |
| N.N.[Cl][Pt][Cl] [cisplatin] + CN(NC(=O)CC(=O)NN(C)C(=S)c1ccccc1)C(=S)c1ccccc1 [STA4783] (first compound 8 µM, partner dose 0.03 µM) | 77.3% | 114% | 107% | 101% | 84.4% | 90.1% | 126% | 109% | 106% | 84.1% | 119% | 96.5% | 82.7% | 92.3% | 85.1% | 105% | 87.9% | 101% | 84% | 107% |
| Cn1cc(C2=C(c3cn(C4CCN(Cc5ccccn5)CC4)c4ccccc34)C(=O)NC2=O)c2ccccc21 [Enzastaurin] + C[C@]12O[C@H](C[C@]1(O)CO)n1c3ccccc3c3c4c(c5c6ccccc6n2c5c31)CNC4=O [Lestaurtinib] (first compound 4 µM, partner dose 0.02 µM) | 66.3% | 74.3% | 79.3% | 66.2% | 128% | 74.9% | 90.4% | 99.2% | 53.9% | 34.3% | 90.1% | 94.7% | 64.1% | 56.6% | 87.1% | 61.8% | 77.3% | 68.9% | 45.7% | 60% |
| C[C@]12O[C@H](C[C@]1(O)CO)n1c3ccccc3c3c4c(c5c6ccccc6n2c5c31)CNC4=O [Lestaurtinib] + Cc1cc(N2CCOCC2)cc2[nH]c(-c3c(NC[C@@H](O)c4cccc(Cl)c4)cc[nH]c3=O)nc12 [BMS536924] (first compound 0.02 µM, partner dose 1 µM) | 51.5% | 81.4% | 106% | 74.3% | 72.9% | 81.9% | 102% | 61.1% | 66.9% | 75.3% | 63% | 57.1% | 63.7% | 45.6% | 88.7% | 87.6% | 82.6% | 90.2% | 60.9% | 42.8% |
